In PubChem BioAssay AID485344 (National Center for Advancing Translational Sciences (NCATS), 2010):
The campaign covered roughly 340,000 compounds. About 6,900 (2%) were called active. No stated cut-off is given here; in the data, active means inhibition above about 30%; inactive means below that, where a call was filed. The entries are a selection whose mix differs from that of the whole data set. Entries without a call were filed so in the source.

Biological target: D(2) dopamine receptor (Homo sapiens) (UniProt P14416)
Chain of UniProt P14416 (P14416 whole entry, looked up): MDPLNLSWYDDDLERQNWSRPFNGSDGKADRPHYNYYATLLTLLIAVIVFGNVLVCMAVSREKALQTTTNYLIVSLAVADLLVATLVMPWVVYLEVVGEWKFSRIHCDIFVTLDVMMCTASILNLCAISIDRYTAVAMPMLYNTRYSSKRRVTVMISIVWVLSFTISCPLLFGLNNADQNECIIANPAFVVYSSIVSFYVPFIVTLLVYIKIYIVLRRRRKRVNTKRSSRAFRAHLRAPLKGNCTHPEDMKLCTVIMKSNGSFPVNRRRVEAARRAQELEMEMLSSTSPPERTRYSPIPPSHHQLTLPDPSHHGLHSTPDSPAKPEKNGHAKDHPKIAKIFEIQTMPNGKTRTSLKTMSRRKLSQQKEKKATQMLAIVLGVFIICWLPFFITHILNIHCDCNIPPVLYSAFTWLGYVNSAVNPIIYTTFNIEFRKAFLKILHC
Test: HTS Assay for Allosteric Antagonists of the Human D2 Dopamine Receptor: Primary Screen for Antagonists; further: 0% is about no effect
Conditions: HEK293 TREx D2 cells, calcium flux, dopamine EC80; at 10 µM; stronger effect = higher value
Summary of the method: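 Antagonism is scored as inhibition of an EC80 dopamine-evoked calcium signal in a force-coupled, tetracycline-inducible HEK293 T-REx D2 line, with compound present 180 s before agonist.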

Compound	inhibition
CCOC(=O)C1CCN(C(c2ccc(C)cc2)c2c(O)cc(C)n(CCOC)c2=O)CC1 (stereo not drawn)	-9.31%
CCOc1ccc(NC(=O)Cn2c(=O)n(CCCS(=O)(=O)C3CCCCC3)c(=O)c3ccccc32)cc1	-3.25%
COc1ccc(CCNC(=O)CCCn2nc(C)c3sc4ccccc4c3c2=O)c(OC)c1	10.7%
Cc1ccccc1NC(=O)CSc1nc(-c2ccco2)nc2cc(=O)[nH]n12	-7.16%
Cc1ccc(NC(=O)C2CCN(c3nc(-c4ccc(C(C)C)cc4)no3)CC2)c(Cl)c1	-23.4%
Cc1ccc(C(=O)Oc2cc(-c3ccc4c(c3)OCO4)cc(=O)c3c(C)oc(C)c23)cc1	12.1%
Cc1ccc(C(=O)NC2(C(F)(F)F)N=C(c3ccccc3)N(Cc3ccccc3)C2=O)cc1 (stereo not drawn)	-6.62%
CC(=O)c1ccc(NS(=O)(=O)c2ccc(-n3cccn3)cc2)cc1	3.97%
Cc1ccc2c(CNCc3ccc(C)o3)c(C(=O)O)n(Cc3ccc(F)cc3)c2c1	1.03%
CCOc1ccc(CNC(=O)c2cc(-c3ccc(Cl)s3)nc3ccccc23)cc1	12.3%
COc1ccc(C(=O)Oc2c(Sc3ccc(C)cc3)c(C)nn2C(C)(C)C)cc1OC	12.9%
COc1ccccc1NC(=O)Cn1c(=O)n(CC(=O)NCc2ccccc2Cl)c(=O)c2sccc21	2.63%
O=C(c1ccc2c(c1)N(Cc1ccc(Cl)cc1)C(=O)c1ccccc1S2=O)N1CCCCC1 (stereo not drawn)	0.0264%
CC1(c2ccc(Cl)cc2)CC(C)(C)N(C(=O)c2cccc(F)c2)c2ccccc21 (stereo not drawn)	-2.66%
COCCCn1c(-c2ccc(S(=O)(=O)N3CCOCC3)cc2)csc1=Nc1ccccc1	-2.83%
O=C(NCCN1CCCCC1)c1ccc(Cn2c(SCc3ccccc3)nc3cccnc32)cc1	8.65%
COc1ccc(CNC(=O)c2cc3sccc3n2Cc2ccc(C)cc2)cc1	-13.9%
CN(CC1CCN(CCc2cccc(C(F)(F)F)c2)CC1)C(=O)c1ccc(F)cc1F	active: 64.5%
O=C(Cc1ccccc1)Nc1sc2c(c1C(=O)Nc1ccc(Br)cc1)CCCC2	-12.8%
Cc1ccc(Cn2ccnc2SCC(=O)Nc2nnc(C)s2)cc1	-11.6%
COc1ccc(OC)c(NC(=O)Nc2c(C)n(C)n(-c3ccccc3)c2=O)c1	11.7%
O=C(O)c1ccc(-c2ccc(/C=c3/sc4nc5ccccc5n4c3=O)o2)cc1Cl	active: 34.3%
Cc1ccc(-c2csc(=Nc3ccccc3)n2Cc2ccc3c(c2)OCO3)cc1	4.81%
O=C(NC1CCN(Cc2ccccc2)CC1)c1ccc(Cn2c(=O)c3ccccc3n(Cc3ccc(F)cc3)c2=O)cc1	8.28%

Compound	inhibition
Cc1cc(C)cc(Oc2nc3ccccn3c(=O)c2/C=C(\C#N)c2nc3ccccc3s2)c1	6.03%
COCCCNC(=O)CSc1nc2cc3c(cc2c(=O)n1CCCC(=O)NCc1ccc2c(c1)OCO2)OCO3	-16.2%
Cc1ccccc1OCCSc1nc2ccc(NC(=O)c3cccs3)cc2s1	19.1%
Cn1c(=O)cc(SCC(=O)N2CCN(c3ccccc3F)CC2)c2ccc(Cl)cc21	-9.59%
COc1ccccc1NC(=O)c1cc2c(C)nn(-c3ccccc3)c2s1	22.5%
Cc1ccc(C(=O)Nc2c(C)cc(-c3ccccc3)oc2=O)cc1	active: 30.9%
COc1ccc(N2CCN(C(=O)COCc3cc(-c4ccc5c(c4)OCO5)on3)CC2)cc1	1.37%
COc1ccc(NC(=O)c2sc3nc(C(F)(F)F)cc(C)c3c2N)cc1OC	20.1%
Cc1ccc(NC(=O)c2nc(S(C)(=O)=O)ncc2N(Cc2ccco2)Cc2cccs2)cc1C	4.83%
O=C1CC(=C2c3ccccc3-c3ccccc32)C(=O)N1CCCCN1CCN(c2ccccc2)CC1	active: 43.9%
CCN(CC)S(=O)(=O)c1ccc2c(c1)nc(CN(C)C(=O)Nc1ccc(C)c(F)c1)n2C	2.06%
CCc1ccccc1NC(=O)CN1C(=O)CCSc2ccc(S(=O)(=O)N3CCCC3)cc21	-4.49%
O=C(OCC1CCCO1)c1ccc2c(c1)N(Cc1ccccc1)C(=O)c1ccccc1S2(=O)=O (stereo not drawn)	-1.53%
CCOC(=O)NN1C(=O)c2ccccc2NC1c1ccccn1 (stereo not drawn)	active: 37.7%
CCc1ccccc1NC(=O)C(C)n1c(=O)cc(C)c2c(C)nn(-c3ccccc3)c21 (stereo not drawn)	-20%
COC(=O)c1ccc(CSc2nc3c([nH]c4ccccc43)c(=O)n2-c2cccc(Cl)c2)o1	-23.2%
CCOC(=O)C1CCCN(C(=O)Cn2ncc3c4ccccc4n(Cc4ccccc4)c3c2=O)C1 (stereo not drawn)	5.61%
O=C(Nc1ccc(F)cc1)C1CCN(S(=O)(=O)c2ccc3c(c2)CCCN3C(=O)C2CCC2)CC1	-6.11%
COc1ccc(N2CCN(CCCNC(=O)c3cc4sccc4n3C)CC2)cc1	active: 40.3%
CCOC(=O)c1cc(-c2ccc(OC)cc2)n(CCC(=O)NC2CCCCC2)c1C	-1.05%
CCOC(=O)c1c(S(=O)(=O)N2CCC(C(=O)Nc3ncccc3C)CC2)c(C)n(C)c1C	-1.46%
COc1ccc2c(CNC3CCCCCC3)c(C(=O)O)n(Cc3ccccc3F)c2c1	-15.1%
Cc1c(C(=O)OC2CCCCC2)[nH]c2c1C(=O)CC(c1ccc(C(C)(C)C)cc1)C2 (stereo not drawn)	11.9%
CCC(=O)N1CCc2cc(Br)cc(S(=O)(=O)CCC(=O)N3CCN(c4cc(C)ccc4C)CC3)c21	3.34%

Compound	inhibition
CCOC(=O)c1cnc2ccc(C)cc2c1Nc1ccc(N(CC)CC)cc1	-3.17%
Fc1ccc(Nc2ncnc3c2nc2n3CCCCC2)c(F)c1	5.34%
CCOc1ccc(-c2oc3ccc(C)cc3c(=O)c2O)cc1	-2.61%
COCCCNC(=O)c1ccc2c(c1)nc(C)n2-c1cccc(C)c1	25.9%
O=C(Nc1ccc(C(=O)OCc2cc(=O)n3nc(C4CC4)sc3n2)cc1)c1cccc(F)c1	18.4%
CCN(c1ccccc1)S(=O)(=O)c1ccc(NC(=O)c2cc(=O)c3ccccc3o2)cc1	0.957%
CCOc1ccccc1Nc1sc(C(=O)c2ccccc2)c(N)c1S(=O)(=O)c1ccc(C)cc1	15.4%
O=C(Nc1ccc2oc(-c3ccc4ccccc4c3)nc2c1)c1ccc(Cl)c(Cl)c1	-1.6%
Cc1ccc(CCNC(=O)c2cc3c(-c4ccccc4F)nn(C)c3s2)cc1	-7.91%
COc1ccc(OC)c(NC(=O)c2cn(CC(C)C)c(=O)c3cc(OC)c(OC)cc23)c1	8.15%
CCOc1ccc(NC(=O)CCCc2nnc3n(C)c(=O)c4sccc4n23)cc1	-2.52%
O=C(NCc1ccccc1F)C(=O)NCC(c1ccco1)S(=O)(=O)c1cccs1 (stereo not drawn)	10.3%
CC1=C(C(=O)Nc2ccccc2)C(c2cccc(Cl)c2)n2nc(SCC(=O)c3ccc(C)cc3)nc2N1 (stereo not drawn)	15.2%
O=C(CSc1nc(-c2ccccc2)nc2c1Cc1ccccc1O2)N1CCCCC1	13.3%
O=c1[nH]c2ccc(NCc3ccc(-c4ccccc4)o3)cc2[nH]1	-3.81%
Cc1ccc(Cn2c(=O)n(CCCCC(=O)NCc3ccccc3Cl)c(=O)c3ccccc32)cc1	3.75%
Cc1cccc(OCC(=O)Nc2ccccc2C(=O)OCc2cc(=O)n3nc(C)sc3n2)c1	-0.243%
O=C(Nc1nc2n(n1)C(c1ccc(Cl)cc1)CC(c1ccc(Cl)cc1)N2)c1ccco1 (stereo not drawn)	active: 31.9%
COc1ccc(OCC(=O)OCc2cc(=O)n3nc(C4CC4)sc3n2)cc1	2.97%
CCCCOC(=O)c1ccc(NC(=O)c2cc(-c3cccs3)on2)cc1	4.61%
CCOC(=O)c1c(NC(=O)/C=C/c2ccc(C)cc2)sc2c1CCCC2	-7.54%
Cc1ccc(Nc2c(-c3ccc(C)s3)nc3ncccn23)cc1	6.01%
O=C(NCCc1ccc(Cl)cc1)c1cc(-c2ccc(Cl)cc2)n[nH]1	-8.2%
Cc1ccc(CNC(=O)CCCc2nnc3n(C)c(=O)c4sccc4n23)cc1	-9.56%

Compound	inhibition
CCC(C)NC(=O)c1ccc2nc(CCc3ccccc3)oc2c1 (stereo not drawn)	8.32%
Cc1ccc(NC(=O)C(=O)NCC(c2ccc3c(c2)OCO3)N2CCOCC2)cc1C (stereo not drawn)	-8.03%
COc1ccccc1CNC(=O)c1ccc(-c2nc(CS(=O)(=O)c3ccc(C)cc3)c(C)o2)cc1	11.4%
CC(C)CC(=O)Nc1ccccc1OCc1cc(=O)n2ccccc2n1	-9.69%
CC1(C)CC(=O)c2c(oc3c(Cl)cc(NS(=O)(=O)c4ccc(Br)cc4)cc23)C1	11.7%
Cc1c(Cl)c(C(F)(F)F)nn1CC(=O)NCc1ccco1	active: 39.9%
CC(=O)N1CCc2c(sc3c2c(=O)n(-c2cc(Cl)ccc2C)c(=O)n3Cc2ccccc2F)C1	-12.3%
O=C(Nc1ccc(Br)cc1F)N1CCC(CN2CCc3ccccc3C2)CC1	-21.6%
COC(=O)c1cc(Cl)ccc1NC(=O)CSc1ncc(S(=O)(=O)c2ccc(Br)cc2)c(=O)[nH]1	-2%
O=c1c2cc(NC(=S)NCCCN3CCC(Cc4ccccc4)CC3)ccc2nc2n1CCCCC2	active: 51.8%
CC(C)(C)OC(=O)N1CCC(c2c(C(=O)N3CCCCC3)cnn2-c2cccc(F)c2)CC1	2.93%
Clc1cccc(Cl)c1CN1CCN(c2ncccn2)CC1	active: 46.3%
CCCCn1c(SCC(=O)Nc2ccc(OCC)cc2)nc2ccsc2c1=O	-16.7%
COc1cc(OC)c(NC(=O)c2noc3c2CSc2ccccc2-3)cc1Cl	11.4%
CC(=O)c1ccc(N2CCN(C(=O)CCc3nnc4n(C)c(=O)c5sccc5n34)CC2)cc1	11.6%
Cc1ccc(C)c(NC(=O)CSc2nnc(-c3cc4occc4n3C)n2-c2ccccc2C)c1	3.96%
CCc1ccccc1NC(=O)[C@@H](c1ccccc1)N1Cc2ccccc2C1=O	-11.3%
Cc1ccc(NS(=O)(=O)c2cc3[nH]c(=O)c(=O)[nH]c3cc2C)cc1N(C)C	11.1%
Cc1ccc(CNC(=O)CSc2ncc3c(n2)-c2ccc(Cl)cc2N(Cc2ccccc2)S3(=O)=O)cc1	5.84%
Cc1cccc(C(=O)Nc2sc3c(c2C(=O)NC(C)C)CCCC3)c1	-3.68%
CCOC(=O)c1cc(S(=O)(=O)NCc2cccc(Cl)c2)[nH]n1	0.511%
